The whole screen tested about 310,000 compounds, of which about 2,200 (0.71%) showed an effect of 50% or more. The effect is printed as a negative number. The list shows a part of the results.
The molecules below were run against human ether-à-go-go-related gene (hERG) potassium channel (human, UniProt Q12809) (assay: primary screen, population patch clamp on CHO cells stably expressing hERG).
human ether-à-go-go-related gene (hERG) potassium channel, sequence (Q12809 whole entry, looked up): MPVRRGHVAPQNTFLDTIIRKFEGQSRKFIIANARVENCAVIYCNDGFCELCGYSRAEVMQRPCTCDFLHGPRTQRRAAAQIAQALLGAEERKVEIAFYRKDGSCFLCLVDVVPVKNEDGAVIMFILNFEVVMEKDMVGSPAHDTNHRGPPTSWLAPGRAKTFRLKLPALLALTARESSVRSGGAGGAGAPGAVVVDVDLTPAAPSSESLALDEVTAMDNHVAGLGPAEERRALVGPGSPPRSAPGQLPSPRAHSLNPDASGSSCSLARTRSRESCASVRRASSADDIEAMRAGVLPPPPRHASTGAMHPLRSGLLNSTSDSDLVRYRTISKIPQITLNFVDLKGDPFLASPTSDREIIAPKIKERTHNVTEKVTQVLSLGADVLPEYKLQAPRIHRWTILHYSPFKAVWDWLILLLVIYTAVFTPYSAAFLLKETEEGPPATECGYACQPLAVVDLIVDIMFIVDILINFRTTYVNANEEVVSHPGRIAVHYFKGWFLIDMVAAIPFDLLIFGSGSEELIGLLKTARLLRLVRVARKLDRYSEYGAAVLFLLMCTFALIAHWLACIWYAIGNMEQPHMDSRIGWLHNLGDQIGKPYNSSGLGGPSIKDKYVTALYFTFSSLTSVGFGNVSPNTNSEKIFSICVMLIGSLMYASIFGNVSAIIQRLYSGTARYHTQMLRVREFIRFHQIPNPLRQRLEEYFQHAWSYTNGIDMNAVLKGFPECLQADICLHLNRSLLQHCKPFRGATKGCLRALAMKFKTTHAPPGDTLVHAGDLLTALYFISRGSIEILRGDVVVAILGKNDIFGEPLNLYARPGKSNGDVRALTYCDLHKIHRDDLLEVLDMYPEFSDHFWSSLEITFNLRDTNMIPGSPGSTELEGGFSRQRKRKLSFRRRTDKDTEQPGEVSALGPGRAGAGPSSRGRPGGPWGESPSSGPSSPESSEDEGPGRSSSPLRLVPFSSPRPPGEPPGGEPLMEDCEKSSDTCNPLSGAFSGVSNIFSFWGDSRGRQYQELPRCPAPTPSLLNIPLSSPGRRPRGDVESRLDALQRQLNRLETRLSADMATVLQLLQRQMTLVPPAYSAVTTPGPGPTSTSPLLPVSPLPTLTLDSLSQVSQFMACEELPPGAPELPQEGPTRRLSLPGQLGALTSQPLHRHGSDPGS

Row | SMILES | hERG current change (%, negative = inhibition) at 1uM [%]
1 | CCC1(c2ccccc2)NC(=O)N(Cc2ccc(C(=O)OC)cc2)C1=O (stereo not shown) | 7.93
2 | C/C(N)=C(/C#N)C(=O)COC(=O)c1cc(-c2cccc(Br)c2)nc2ccccc12 | -6.4
3 | CCCCn1c(O)c(/C=C2/C=CC=N2)c(=O)[nH]c1=O | 29.2
4 | Cc1cc(C)c(C(=O)OCC(=O)NC(=O)c2ccccc2)c(C)c1 | 7.82
5 | COc1ccc(C2/C=C\CN(C(=O)C3CC3)[C@H](Cc3ccccc3)C(=O)N2Cc2ccc(F)cc2)cc1 (stereo partly shown) | 10.7
6 | Cc1nn(C(C)C)c(C)c1CN1CCC(C(=O)Nc2cccc(-c3cccc(F)c3)c2)CC1 | -1.94
7 | Cc1cc(C)c(C)c(OCC(=O)NCC2CCCO2)c1 (stereo not shown) | 2.34
8 | CC1(C)SC2c3ccccc3C(=O)N2[C@@H]1C(=O)NCCCN1CCOCC1 (stereo partly shown) | 8.39
9 | NS(=O)(=O)c1ccc(NC(=S)NCCc2ccccc2)cc1 | 16.3
10 | S=C(NCc1cccnc1)Nc1cc(Cl)cc(Cl)c1 | 10.2
11 | CCOC(=O)c1c(C)[nH]c(C(=O)COC(=O)CCS(=O)(=O)c2ccc(C)cc2)c1C | -3.29
12 | CCOc1ccc(NC(=O)CN(C)C(=O)c2ccc(N3CCCC3)c([N+](=O)[O-])c2)cc1OCC | -8.92
13 | COc1ccccc1-n1c(CNc2c(C)cccc2C)nnc1SCC(=O)N1CCOCC1 | -4.47
14 | NC(=O)c1nn(-c2ccccc2)nc1NC(=O)Cn1nnc(-c2ccccc2)n1 | 22.5
15 | CCc1noc(C)c1C(=O)Nc1cccc(S(=O)(=O)N(C)c2ccccc2)c1 | 9
16 | O=C(CC1C(=O)NCCN1Cc1c(F)cccc1Cl)NC1CCCC1 (stereo not shown) | 9.74
17 | CCOCCCNC(=O)c1c(-c2ccccc2)noc1C | 9.76
18 | CCN1CCN(C2=C(NS(=O)(=O)c3ccccc3)C(=O)c3ccccc3C2=O)CC1 | 12.5
19 | CCOC(=O)Nc1ccc(S(=O)(=O)N2CCOCC2)cc1 | 6.76
20 | O=C1C2CCCN2C(c2ccc(Br)cc2)N1c1ccc(F)cc1 (stereo not shown) | 3.21
21 | CCc1nnc(NS(=O)(=O)c2ccc(NC(=O)c3ccccc3C)cc2)s1 | 13.8
22 | CCN(CC)C(=O)c1ccc(/C=C/c2c[nH]c3ccccc23)[n+](C)c1.[I-] | 14.6
23 | O=C1NC(=O)C(CCc2ccncc2)(CCc2ccncc2)C(=O)N1CCc1ccccc1 | -23.1
24 | Cc1ccc(-c2cc(C(F)F)nc(NCc3cccs3)n2)cc1 | 1.19
25 | CCCC(=O)Nc1ccc(C)c(O)c1 | 10.7
26 | COc1ccc(CCNCC(=O)Nc2ccc(C)c(Br)c2)cc1OC.Cl | -0.5
27 | Nc1c(S(=O)(=O)c2cccs2)c2nc3ccccc3nc2n1/N=C/c1cccc(O)c1 | 2.55
28 | O=c1nc(Nc2ccccc2)oc2ccccc12 | 10.7

Row | SMILES | hERG current change (%, negative = inhibition) at 1uM [%]
29 | Cc1ccc(C)c(C2=CSC3=NS(=O)(=O)CCN23)c1 | 22.5
30 | CC(=O)c1ccc(OCc2cc(C(=O)N(C)Cc3ncc(C)[nH]3)no2)cc1 | 4.39
31 | COc1ccccc1NC(=S)NC(=O)C(C)C | 1.14
32 | CC1(C)NC(=O)N(CC(=O)N2CCN(S(=O)(=O)c3cc(Cl)ccc3Cl)CC2)C1=O | 3.66
33 | CSc1sc(C(=O)N(C)C)cc1S(=O)(=O)C(C)C | 9.35
34 | Oc1ccc(/C=N/NC(=S)N2CCOCC2)cc1 | 10.5
35 | Cc1ccc(-c2cc(C(=O)N/N=C/c3c(C)nn(C)c3C)c3ccccc3n2)c(C)c1 | 10.4
36 | Cl.Oc1ccccc1Nc1nc(NCc2ccco2)c2ccccc2n1 | 4.18
37 | CCOC(=O)c1c(NC(=O)C(C)OC(=O)C2=COCCO2)sc2c1CCCC2 (stereo not shown) | 9.54
38 | N#C/C(C(=O)N1CCOCC1)=C1/SC(Cc2ccc(F)cc2)C(=O)N1c1ccccc1 (stereo not shown) | 13.2
39 | COc1cc(CNc2ccc(N3CCN(C(C)=O)CC3)cc2)ccc1OCc1ccccc1 | 10.9
40 | Cc1ccc(S(=O)(=O)NC(CC(=O)N2CCOCC2)c2ccco2)cc1 (stereo not shown) | 9.66
41 | CCCCNc1cnn(-c2ccccc2)c(=O)c1Cl | 10
42 | CNc1ccccc1C(C)(C)c1cc(-c2cc(C)cc(C)c2)no1 | 17
43 | Cc1oc(-c2ccc(C(F)(F)F)cc2)nc1CN(Cc1ccccn1)C[C@@H]1CCC(=O)N1 | -14.5
44 | CCN(CC)c1ccc(C=Nc2ccccc2C)c(O)c1 | 7.05
45 | CCCCCC(=O)Nc1cccc2ccccc12 | 5.48
46 | COc1cc(/C=C/C(=O)OCC(=O)NCc2cccs2)ccc1OCC#N | 10.6
47 | CCN(CC)CCOC(=O)c1ccc(NC(=O)/C=C/c2cccs2)cc1.Cl | -53.5
48 | O=C(N/N=C/c1ccc(O)c(O)c1)c1ccc(-n2cnnn2)cc1 | 0.209
49 | CC(CCc1ccccc1)NC(=O)c1ccc(NC(=O)c2ccc(Cl)cc2Cl)cc1 (stereo not shown) | 5.84
50 | C/C(=N\NS(=O)(=O)c1ccc(Br)cc1)c1ccc2c(c1)OCO2 | 4.14
51 | COc1ccc(NC(=O)Cn2c(=O)n(CC(=O)NCc3ccco3)c(=O)c3ccccc32)cc1OC | 11.1
52 | O=C(CSc1nnc(-c2ccco2)n1Cc1ccccc1)NC(=O)NCc1ccccc1 | 8.4
53 | Cc1ccc(C)c(N2CCN(c3nc4ccccc4c(=O)n3Cc3ccccc3)CC2)c1 | 10.3
54 | CC(=O)Nc1ccc(NC(=O)C(C)OC(=O)c2ccc3[nH]c(C)c(C)c3c2)cc1 (stereo not shown) | 11.2
55 | CCOC(=O)C1Nc2ccc(C(=O)O)cc2C2C=CCC12 (stereo not shown) | 15.4
